Patent publication US20240043504A1
Changes are numbered by the printed parent chain. “And” between values parts separate entries of the source, which are not always exact repeats. Identical values can stand only once.

B1: mAb10932 (antibody)
heavy: EVQLVESGGGLVQSGGSLRLSCAASGLTVSSNYMSWVRQAPGKGLEWVSVIYSGGSTFYSDSVKGRFTISRHNSKNTLYLQMNSLRAEDTAVYYCARARGDAFDIWGQGTMVTVSS[human IgG1 constant region left out]
light: DIQMTQSPSSLSASVGDRVTITCQASQGISNYLNWYQQKPGKAPKLLISDASNLETGVPSRFSGSGSGTDFTFTISSLQPEDIATYYCQQYDNLRFFTFGPGTKVDIKRTVAAPSVFIFPPSDEQLKSGTASVVCLLNNFYPREAKVQWKVDNALQSGNSQESVTEQDSKDSTYSLSSTLTLSKADYEKHKVYACEVTHQGLSSPVTKSFNRGEC
B2: mAb10967 (antibody)
heavy: EVQLVESGGGLVQPGGSLRLSCAASGFTVSSNYMSWVRQAPGKGLEWVSVIYPGGSTFYADSVKGRFTISRDNSKNTLYLQMNSLRAEDTAVYYCARDQRDFAWGQGTLVTVSS[human IgG1 constant region left out]
light: DIQMTQSPSSLSASVGDRVTITCQASQDISNYLNWYQQKPGKAPKLLIYDASNLETGVPSRFSGSGSGTDFTFTISGLQPEDIATYYCQQYDNLPPTFGQGTRLEIKRTVAAPSVFIFPPSDEQLKSGTASVVCLLNNFYPREAKVQWKVDNALQSGNSQESVTEQDSKDSTYSLSSTLTLSKADYEKHKVYACEVTHQGLSSPVTKSFNRGEC
B3: mAb10956 (antibody)
heavy: EVQLVESGGGLVQPGGSLRLSCAASGLTVSSNYMSWVRQAPGKGLEWVSVIYSGGSTFYADSVKGRFTISRDNSKNTLYLQMNSLRAEDTAVYYCARDLIKYGMDVWGQGTTVTVSS[human IgG1 constant region left out]
light: B2 light with G77S, T97H, Q100P, R103K, L104V, E105D

Target: SARS-CoV-2 Spike Protein (RBD)(R319-F541).mmH (SARS-CoV-2)
Experiment: Luminex, supernatant
Details: remark: other sources report otherwise

| Binder | MFI |
| --- | --- |
| B1 | 30000 MFI and 30100 MFI |
| B2 | 28500 MFI and 26500 MFI |
| B3 | 27900 MFI and 25700 MFI |
